# Measured values as given in paper PMC13083723 (Patterns, 2026).
# Hit rate of the full screen: of about 5,400 compounds, about 190 (3.5%) showed an effect of 50% or more. The list shows a part of the results.
# System: Vero-E6
# Assay: primary screen, phospholipidosis by LipidTOX staining; higher = more effect of the substance
# Details: 10 µM
# Outline: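 Drug-induced phospholipidosis detected with HCS LipidTOX Red reagent in Vero-E6 cells. Compounds tested at 10 μM, with amiodarone (10 μM) as positive control and DMSO (0.1 v/v %) as vehicle.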
row,SMILES,result_ITMP [%]
1,C[C@]12CC[C@H]3[C@@H](CCC4=CC(=O)CC[C@@]43C)[C@@H]1CC[C@@H]2C(=O)CO,-9.19
2,CCCCN1CCC(CNC(=O)c2c3n(c4ccccc24)CCCO3)CC1,0.9
3,Cc1ccccc1C(=O)Nc1ccc(C(=O)N2CCCC(N(C)C)c3ccccc32)cc1 (stereo not shown),20.6
4,C=C[C@@](C)(/C=C/c1ccc(O)cc1)CCC=C(C)C,-1.73
5,CCc1cccc(CC)c1N=C1NCCN1,-5.43
6,Cc1ncccc1OC[C@@H]1CCCN1,8
7,C[N+]1(C)CCc2cc3c(cc2[C@H]1[C@@H]1OC(=O)c2c1ccc1c2OCO1)OCO3,1.06
8,CCCOc1ccc(Br)cc1-c1cc(-c2ccc(Cl)cc2)[nH]c1-c1ccncc1,-4.46
9,NCCCCN,-4.38
10,CN(C)CCOc1cc(-c2cn[nH]c2)ccc1NC(=O)C1COc2ccccc2O1 (stereo not shown),18.2
11,C=CCn1c(=O)n([C@@H]2O[C@H](CO)[C@@H](O)[C@H]2O)c2nc(N)nc(O)c21,-1.06
12,CN(Cc1ccc(C(C)(C)C)cc1)Cc1cccc2ccccc12,1.14
13,N=C(CC(O)COc1ccccc1-c1ccccc1)N1CCCCC1 (stereo not shown),-1.97
14,O=C(NCCCNc1nc(Nc2cccc(NC(=O)N3CCCC3)c2)ncc1I)c1cccs1,18.5
15,CN1CC[C@@H](c2c(O)cc(O)c3c(=O)cc(-c4ccccc4Cl)oc23)[C@@H]1CO,35.1
16,CC1(C)Oc2ccc(C#N)cc2[C@@H](OC2=CC(=O)CC2)[C@@H]1O,-4.63
17,CCCCCCCCNC(C)C(O)c1ccc(SC(C)C)cc1 (stereo not shown),-0.91
18,CC(=O)CC(c1ccc([N+](=O)[O-])cc1)c1c(O)c2ccccc2oc1=O (stereo not shown),-4.22
19,O=C(O)c1cc([N+](=O)[O-])ccc1NCCCc1ccccc1,-0.35
20,S=c1[nH]cnc2nc[nH]c12,-1.86
21,CC(C)(C)c1ccc(O)cc1,-1.81
22,CNC(=S)C1(c2ccccn2)CCCS1 (stereo not shown),-5.51
23,NS(=O)(=O)c1ccc(NC(=O)Nc2ccc(F)cc2)cc1,-1.55
24,CCC(=O)c1ccc(OCC(O)CN2CCN(c3ccccc3)CC2)cc1 (stereo not shown),-5.46
25,CN1CC[C@@H]2CN3CCc4cccc(c43)[C@@H]2C1,5.83
26,COc1cc(C(=O)NC2CCN(C)CC2)c(F)cc1Nc1ncc2c(n1)N(C1CCCC1)CC(F)(F)C(=O)N2C,69.4
27,COc1ccc2c3c1O[C@H]1C[C@@H](O)C=C[C@@]31CCN(C)C2,-3.23
28,O=C(CN1C(=O)C2(CCCC2)NC[C@H]1c1cc(F)cc(F)c1)Nc1ccc2c(c1)C[C@@]1(C2)C(=O)Nc2ncccc21,-1.44
